Assay results: patent publication US20180037644A1 (Pfizer, published 2018)
Like-named read-outs stand apart in the source and are kept apart here.

Assays:
Experiment in all cases: cell-based or functional assay
human IL-33 (mm2) [1] = target: T1, human IL-33 (mm2) (human, UniProt O95760 112-270)
T1 chain: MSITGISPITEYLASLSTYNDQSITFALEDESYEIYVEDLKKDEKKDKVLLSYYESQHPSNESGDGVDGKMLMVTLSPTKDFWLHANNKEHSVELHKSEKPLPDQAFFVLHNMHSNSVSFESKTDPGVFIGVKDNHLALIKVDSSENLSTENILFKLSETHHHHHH

[2] = target: T2, cynomolgus monkey IL-33 (cys mut) (cynomolgus monkey)
T2 chain: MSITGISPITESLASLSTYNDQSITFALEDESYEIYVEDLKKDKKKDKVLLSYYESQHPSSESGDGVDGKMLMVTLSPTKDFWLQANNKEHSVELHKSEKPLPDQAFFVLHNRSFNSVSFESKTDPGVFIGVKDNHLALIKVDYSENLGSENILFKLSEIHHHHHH

human IL-33 WT (R&D) = target: T3, human IL-33 WT (R&D) (human, UniProt O95760 112-270)
T3 sequence: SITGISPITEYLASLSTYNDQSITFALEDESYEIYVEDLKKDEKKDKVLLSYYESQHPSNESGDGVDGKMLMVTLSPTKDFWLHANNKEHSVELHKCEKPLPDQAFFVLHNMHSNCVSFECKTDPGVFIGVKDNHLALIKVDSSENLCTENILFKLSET

[3] = target: T2, cynomolgus monkey IL-33 (cys mut)
human IL-33 (mm2) [4] = target: T1, human IL-33 (mm2)

B1: human ST2-Fc-His (R&D) (Fc fusion)
chain: KFSKQSWGLENEALIVRCPRQGKPSYTVDWYYSQTNKSIPTQERNRVFASGQLLKFLPAEVADSGIYTCIVRSPTFNRTGYANVTIYKKQSDCNVPDYLMYSTVSGSEKNSKIYCPTIDLYNWTAPLEWFKNCQALQGSRYRAHKSFLVIDNVMTEDAGDYTCKFIHNENGANYSVTATRSFTVKDEQGFSLFPVIGAPAQNEIKEVEIGKNANLTCSACFGKGTQFLAAVLWQLNGTKITDFGEPRIQQEEGQNQSFSNGLACLDMVLRIADVKEEDLLLQYDCLALNLHGLRRHTVRLSRKNPSKECFIEGRM[gap - human IgG1 Fc and a few adjoining residues]
IC50, HEK293 ST2 NFkB (human IL-33 (mm2) [1]): 0.043 nM | IC50, HEK293 ST2 NFkB [2]: 0.045 nM | IC50, HEK293 ST2 NFkB (human IL-33 WT (R&D)): 1.89 nM | IC50, HEK293 ST2 NFkB [3]: 0.005 nM | IC50, HEK293 ST2 NFkB (human IL-33 (mm2) [4]): 0.056 nM
